Source: PubChem BioAssay AID1745853 (National Center for Advancing Translational Sciences (NCATS), 2022)
Some of the results follow. Shown are side measurements of this screen, not its main read-out; they come without a call.

Experiments:
Experiment in all cases: Primary Screen for Target Class Profiling of Small Molecule Inhibitors of Methyltransferases
[1] = target: Glycine N-methyltransferase (Homo sapiens) (UniProt Q14749); conditions: purified enzyme, MTase-Glo SAH luminescence; measured here: GNMT inhibition; at 40 µM; stronger effect = lower value
Outline: (§1)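 Each enzyme was assayed with SAM and its substrate. SAH formation detected by MTase-Glo luminescence; single-point 40 uM screen[…].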

[2] = target: Guanidinoacetate N-methyltransferase (Homo sapiens) (UniProt Q14353); conditions: purified enzyme, MTase-Glo SAH luminescence; measured here: GAMT inhibition; at 40 µM; stronger effect = lower value
Outline: as §1

[3] = target: Histamine N-methyltransferase (Homo sapiens) (UniProt P50135); conditions: purified enzyme, MTase-Glo SAH luminescence; measured here: HNMT inhibition; at 40 µM; stronger effect = lower value
Outline: as §1

[4] = target: Nicotinamide N-methyltransferase (Homo sapiens) (UniProt P40261); conditions: purified enzyme, MTase-Glo SAH luminescence; measured here: NNMT inhibition; at 40 µM; stronger effect = lower value
Outline: as §1

[5] = target: Phenylethanolamine N-methyltransferase (Homo sapiens) (UniProt P11086); conditions: purified enzyme, MTase-Glo SAH luminescence; measured here: PNMT inhibition; at 40 µM; stronger effect = lower value
Outline: as §1
% is scaled to controls: 0 for no effect and ±100 for the full control effect.

Structure (SMILES) | activity change, negative = inhibition [1] [%] | activity change, negative = inhibition [2] [%] | activity change, negative = inhibition [3] [%] | activity change, negative = inhibition [4] [%] | activity change, negative = inhibition [5] [%]
CC[C@H](CO)Nc1nc(NCc2ccc(-c3ccccn3)cc2)c2ncn(C(C)C)c2n1 | -9.45 | -3.08 | 6.5 | -33.6 | -5.65
CCOC(=O)CNC(=O)N1Cc2c(sc3c2CCCC3)-n2cccc2C1c1cccc(OC)c1 (configuration not stated) | -3.26 | 2.2 | -2.24 | -10.5 | 1.65
Cn1c(=O)n(C)c2cc(S(=O)(=O)Nc3ccccc3)ccc21 | -3.01 | 2.07 | 1.88 | 5.54 | 0.031
COc1ccc(-n2nc3n(c2=O)CCN([S+](=O)([O-])c2c(C)noc2C)C3)cc1 | -9.15 | -9.5 | -3.06 | -19.9 | -9.85
COc1cccc(NC(=O)N2Cc3c(sc4c3CCCC4)-n3cccc3C2c2cccc(OC)c2)c1 (configuration not stated) | 0.722 | 1.75 | 8.03 | -1.62 | 6.47
C=C(C(=O)O)[C@@H]1CC[C@@]2(C)CC[C@@H](O)C(=C)C2C1 (some centres not stated) | 0.963 | -1.41 | 4.02 | -12.6 | -2.41
COc1ccc(CCNC(=O)c2ccc3c(=O)nc4c(-c5cccc(F)c5)n[nH]n4c3c2)cc1OC | -44.1 | -2.12 | -8.98 | -6.64 | -9.55
CN1C(=O)c2cc(C(=O)NCc3ccc(F)cc3)nn2CC1(C)C(=O)NC1CCCCC1 (configuration not stated) | 4.47 | 3.14 | 0.519 | 3.11 | 1.65
CCCn1c(=O)c2ccccc2n2c(=O)n(CC(=O)N3CCN(c4ccc(F)cc4)CC3)nc12 | 2.38 | 0 | 5.08 | -7.46 | 2.8
CC1CC(=O)C2=C(O1)OC1(C)CCC3C(C)(C)C4OC4C(=O)C3(C)C1C2 (configuration not stated) | 2.4 | 3.21 | 9.89 | -95 | -0.403
CC(=O)N1CCC(Cc2ccc(CN(C(=O)CCc3ccccc3)C3CC3)cc2)CC1 | -10.1 | -0.068 | -5.01 | -16.6 | -2.35
CCCSCCCN1C(=O)c2cc3ccccc3n2CC1(C)C(=O)NC1CCCCC1 (configuration not stated) | -5.85 | 5.27 | -4.53 | -1.28 | -3.33
COC1CC(O[C@H]2CC[C@@]3(C)C(=CC[C@]4(O)C3[C@H](O)[C@@H](O)[C@]3(C)[C@@H]([C@H](C)O)CC[C@@]34O)C2)OC(C)C1OC1CC(OC)C(OC2CC(OC)C(OC3OC(C)C(OC4OC(CO)C(O)C(O)C4O)C(OC)C3O)C(C)O2)C(C)O1 (some centres not stated) | 0 | 3.02 | 12.2 | -8.64 | -1.54
C[C@@H]1CN(Cc2ccc(F)cc2)[C@@H](C)CN1C(=O)c1cc2c(C(=O)C(=O)N(C)C)cn(C)c2cc1Cl | 0.062 | 8.81 | 9.95 | -13.2 | 8.26
CNC(=O)c1ccccc1Nc1nc(Nc2ccc3c(c2OC)CCC[C@@H](N2CCN(CCO)CC2)C3)ncc1Cl | -14.3 | – | -33.6 | – | –
Cc1ccc(C)c(NC(=O)Cn2ccn3nc4c(c3c2=O)CCCCC4)c1 | -3.54 | -3.56 | 0.077 | -9.72 | -5.7
O=C(c1nc(-c2ccsc2)c2cnccn12)N1CCCC1 | -10.6 | -7.37 | -11 | -26.4 | -4.38
CC(C(=O)N1CCc2onc(-c3ccc(F)c(F)c3)c2C1)n1ccnc1 (configuration not stated) | -3.16 | -1.19 | 0.75 | 0.367 | 2.81
CCNC(=O)N1CCC(Oc2ncccc2C(=O)N2CCCCC2)C1 (configuration not stated) | -1.49 | -0.248 | 1.31 | -5.45 | -2.02
COc1cc(C2Oc3c(OC)cc(CCCO)cc3C2CO)ccc1O[C@H]1O[C@H](C)[C@@H](O)[C@H](O)[C@@H]1O (some centres not stated) | -0.359 | -1.3 | 9.43 | -13.5 | -9.95

Structure (SMILES) | activity change, negative = inhibition [1] [%] | activity change, negative = inhibition [2] [%] | activity change, negative = inhibition [3] [%] | activity change, negative = inhibition [4] [%] | activity change, negative = inhibition [5] [%]
CC(C)NC(=O)c1ccc2c(=O)n(Cc3ccccc3)c3nnc(SCc4ccccc4)n3c2c1 | 5.89 | 0 | 8.12 | 5.31 | 6.38
CC1=CC(=O)C2C(C)(C)CC(O)CC2(C)C1CO (configuration not stated) | 6.31 | 6.28 | 8.63 | -5.05 | 6.21
NC(=O)c1cccc(N)c1 | -0.931 | 7.31 | 2.92 | -4.92 | 4.74
O=C1NC(O)=NC1(c1ccccc1)c1ccccc1 | 8.03 | 10.3 | 11.7 | -6.44 | 4
CC1(C(=O)NC2CCCCCCC2)Cn2c(cc3sccc32)C(=O)N1CCc1ccccc1 (configuration not stated) | 4.77 | 0 | 9.62 | 1.37 | 1.57
Cc1cnccc1CN(C)C(=O)c1cc(COc2ccc(-n3cncn3)cc2)on1 | -8.4 | -10.1 | -6.05 | -12.3 | -3.59
CC(C)CNC(=O)c1ccc2c(=O)n(CC(C)C)c3nn(CC(=O)c4ccccc4)c(=O)n3c2c1 | 6.97 | 1.06 | 10.2 | 4.92 | 9.1
CCOC(=O)c1cc2n(n1)CC(C)(C(=O)NCCCOC)N(c1ccc(F)cc1C)C2=O (configuration not stated) | 6.85 | 1.14 | 7.47 | 8.26 | 3.92
O=C(c1ccc2c(c1)OCCO2)N1CCC(Cn2cc(CCO)nn2)CC1 | -0.397 | -2.79 | 2.13 | -5.6 | 2.47
Cc1ccsc1CCNC(=O)Cn1c(=O)oc2cc(S(=O)(=O)NCc3ccccc3)ccc21 | -0.896 | 3.63 | -5.85 | -6.59 | -11.8
CN1C(=O)c2cc(C(=O)Nc3cccc(Cl)c3)nn2CC1(C)C(=O)NC1CCCCC1 (configuration not stated) | -4.44 | -0.725 | 0.572 | 2.66 | 0.388
CCOc1ccc(CNC(=O)c2cc3n(n2)CC(C)(C(=O)NCCC(C)C)N(C)C3=O)cc1 (configuration not stated) | 0.853 | 0 | 0.927 | 8.01 | 2.62
CNC(=O)Nc1cccn2nc(-c3ccccc3)nc12 | -11.6 | -13.2 | -6.68 | -11.3 | -11.5
CC(C)CC(=O)NCCn1cc(C(=O)O)c(=O)cc1C(O)c1ccccc1 (configuration not stated) | -0.944 | 0.385 | 3.35 | -11.3 | 4.63
CN(Cc1cnn(-c2ccc(F)cc2)c1)c1cc(C2CC(O)C2)ncn1 (configuration not stated) | -2 | 0.68 | -2.71 | -1.84 | 5.37
COc1cc2nc(N3CCC(N4CCCCC4)CC3)nc(NC3CCCCCC3)c2cc1OC | -39.9 | -14 | -75.6 | -61.4 | -35
CCCN1C(=O)c2c(C(=O)NCc3ccccc3Cl)ncn2CC1(C)C(=O)NCc1ccc(OC)cc1 (configuration not stated) | 1.26 | 3.2 | 3.93 | 1.68 | 3.27
CC1=CC(=O)CC(C)(C)[C@H]1/C=C/C(CO)O[C@@H]1O[C@H](CO)[C@@H](O)[C@H](O)[C@H]1O (some centres not stated) | 3.41 | 0.004 | 2.61 | -13.2 | 3.55
CN1C(=O)c2cc(C(=O)NCc3ccc(Cl)cc3)nn2CC1(C)C(=O)NC1CCCCCC1 (configuration not stated) | 4.43 | 3.69 | 7.38 | 9.52 | 3.78
C[C@@H]1[C@H](O)[C@@H]2OC(=O)C3=C2[C@H](CCC3)[C@@]12C[C@@H](c1ccoc1)OC2=O | -0.569 | 2.53 | 6.54 | -8.27 | 3.56

Structure (SMILES) | activity change, negative = inhibition [1] [%] | activity change, negative = inhibition [2] [%] | activity change, negative = inhibition [3] [%] | activity change, negative = inhibition [4] [%] | activity change, negative = inhibition [5] [%]
C=Cc1ccc(O[C@@H]2O[C@H](CO[C@@H]3O[C@@H](C)[C@H](O)[C@@H](O)[C@H]3O)[C@@H](O)[C@H](O)[C@H]2O)cc1 | 3.97 | 4.48 | 12 | -8.72 | 6.2
Cc1ccc(S(=O)(=O)N2CCN(C3CCN(CCC(C)C)C3=O)CC2)cc1F (configuration not stated) | -0.412 | -1.45 | 0.899 | -4.67 | -11.8
COCCCN1C(=O)c2cc3sccc3n2CC1(C)C(=O)NC1CCCCC1 (configuration not stated) | -5.16 | 2.61 | -2.93 | -11 | -1.18
CC(C)c1nc(-c2ccc(C(=O)N[C@@H]3COCC[C@@H]3OCC3CC3)cc2)no1 | -3.54 | -6.73 | -5.46 | -11.6 | -9.39
CC(C)CN1CCN(C(=O)C2CCc3ncc(-c4ccc(F)cc4)n3C2)CC1 (configuration not stated) | -2.11 | 0.234 | -9.01 | -4.87 | -3.57
C=C(C)C1CC(O)C(C)C12CC(O)C1(C)OC1C2O (configuration not stated) | -1.35 | 1.67 | 0.79 | -9.52 | 4.02
O=C(NCC(F)F)c1cc(-c2cccs2)c2cccn2n1 | -18.9 | -12.5 | -11.6 | -31.5 | -15.2
COCCN1CCCC1c1nc(C2CN(C(=O)c3ccccc3OC)C2)no1 (configuration not stated) | -2.69 | -2.49 | -6.29 | -3.41 | -6.93
Cc1cc(CN2C[C@@H](COCC3CC3)[C@H](c3ccccn3)C2)n(C)n1 | -3.54 | -1.52 | 0.925 | -3.48 | 1.62
CSc1ccc(CCN2C(=O)c3ccc(-c4ccco4)n3CC2(C)C(=O)NC2CCCCC2)cc1 (configuration not stated) | -27.4 | -0.296 | 1.67 | -7.22 | -2.01
CCC(C)NC(=O)c1ccc2c(=O)n(C)c3nnc(SCC(=O)Nc4ccc(OC)cc4)n3c2c1 (configuration not stated) | 5.23 | 0 | 5.11 | 5.76 | 7.4
COc1ccc2nc3ccc(OC)cc3c(SCCCN)c2c1 | – | -1.62 | – | -17.3 | -4.52
CN1CCN(C(=O)[C@@H]2C[C@H](C(=O)O)CN(Cc3cccc(F)c3)C2)CC1 | -5.01 | -8.09 | -5.14 | -9.08 | -9.92
CC(C)n1c(=O)c2ccc(C(=O)NC3CCCCC3)cc2n2c(=O)n(Cc3cccc(F)c3)nc12 | 2.06 | 1.8 | 6.28 | 1.22 | -1.28
CC(NCc1ccc(OCc2cccc(F)c2)cc1)C(N)=O (configuration not stated) | -1.13 | – | 8.42 | – | –
C=C1CC[C@H]2C(=C)CC[C@H]3C(=C)C(=O)O[C@@H]3[C@@H]12 | -3.09 | -2.65 | 7.43 | -14.4 | 0.574
CCOC(=O)c1cc2n(n1)CC(C)(C(=O)NC1CCCCCC1)N(c1ccc(F)cc1)C2=O (configuration not stated) | 5.12 | 0.594 | -2.83 | 9.06 | 4.23
COc1ccc(CN2C(=O)c3cc4sccc4n3CC2(C)C(=O)NC2CCCCC2)cc1OC (configuration not stated) | 3.71 | 0 | 5.67 | -28 | 4.42
COc1ccc(NS(=O)(=O)c2cc3c(cc2C)n(C)c(=O)n3C)cc1Cl | 0.021 | 0.227 | -3.31 | -7.83 | -0.95
Cn1cnc(S(=O)(=O)N2CC(c3nc(-c4ccncc4)no3)C2)c1 | 0.064 | 0.456 | 1.26 | 2.16 | 2.71
